Measured values published in PubChem BioAssay AID504333 (National Center for Advancing Translational Sciences (NCATS), 2011).
Hit rate of the full screen: of about 360,000 compounds, about 16,000 (4.4%) were called active. Inconclusive results, whose numbers are uncertain, are shown with a selection of clear calls. The call rests on the fitted dose curve; in most records, active means well fitted inhibition curve with a large enough effect; inconclusive means small, poorly fitted or top-dose-only effect; inactive means no such curve, though single readings can be large or run the other way. A potency beside an inconclusive call is a rough fit, not a confirmed value.

Molecular target: Bromodomain adjacent to zinc finger domain protein 2B (Homo sapiens) (UniProt Q9UIF8)
Test: qHTS Assay for Inhibitors of BAZ2B; further: nearly all actives have a fitted effect of over 60% in size
Conditions: AlphaScreen BAZ2B-H3K14Ac peptide displacement; activity change, negative = inhibition: at 114 µM (top of the series)
Method in brief: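 Protein-peptide AlphaScreen: BAZ2B 50 nM, b-H3K14Ac 50 nM, 1x PBS pH 7.4 + 0.01% Tween-20. Preincubation 30 min RT; cpd 30 min RT (top 110 uM); beads 20 min RT, light-protected.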
On the % scale 0 is the no-effect control and ±100 the full control effect; potency means the concentration at half of the fitted maximal effect; tags describe the fitted curve by direction and shape.

Chain of UniProt Q9UIF8 (Q9UIF8 whole entry, looked up, the tested form may be a part): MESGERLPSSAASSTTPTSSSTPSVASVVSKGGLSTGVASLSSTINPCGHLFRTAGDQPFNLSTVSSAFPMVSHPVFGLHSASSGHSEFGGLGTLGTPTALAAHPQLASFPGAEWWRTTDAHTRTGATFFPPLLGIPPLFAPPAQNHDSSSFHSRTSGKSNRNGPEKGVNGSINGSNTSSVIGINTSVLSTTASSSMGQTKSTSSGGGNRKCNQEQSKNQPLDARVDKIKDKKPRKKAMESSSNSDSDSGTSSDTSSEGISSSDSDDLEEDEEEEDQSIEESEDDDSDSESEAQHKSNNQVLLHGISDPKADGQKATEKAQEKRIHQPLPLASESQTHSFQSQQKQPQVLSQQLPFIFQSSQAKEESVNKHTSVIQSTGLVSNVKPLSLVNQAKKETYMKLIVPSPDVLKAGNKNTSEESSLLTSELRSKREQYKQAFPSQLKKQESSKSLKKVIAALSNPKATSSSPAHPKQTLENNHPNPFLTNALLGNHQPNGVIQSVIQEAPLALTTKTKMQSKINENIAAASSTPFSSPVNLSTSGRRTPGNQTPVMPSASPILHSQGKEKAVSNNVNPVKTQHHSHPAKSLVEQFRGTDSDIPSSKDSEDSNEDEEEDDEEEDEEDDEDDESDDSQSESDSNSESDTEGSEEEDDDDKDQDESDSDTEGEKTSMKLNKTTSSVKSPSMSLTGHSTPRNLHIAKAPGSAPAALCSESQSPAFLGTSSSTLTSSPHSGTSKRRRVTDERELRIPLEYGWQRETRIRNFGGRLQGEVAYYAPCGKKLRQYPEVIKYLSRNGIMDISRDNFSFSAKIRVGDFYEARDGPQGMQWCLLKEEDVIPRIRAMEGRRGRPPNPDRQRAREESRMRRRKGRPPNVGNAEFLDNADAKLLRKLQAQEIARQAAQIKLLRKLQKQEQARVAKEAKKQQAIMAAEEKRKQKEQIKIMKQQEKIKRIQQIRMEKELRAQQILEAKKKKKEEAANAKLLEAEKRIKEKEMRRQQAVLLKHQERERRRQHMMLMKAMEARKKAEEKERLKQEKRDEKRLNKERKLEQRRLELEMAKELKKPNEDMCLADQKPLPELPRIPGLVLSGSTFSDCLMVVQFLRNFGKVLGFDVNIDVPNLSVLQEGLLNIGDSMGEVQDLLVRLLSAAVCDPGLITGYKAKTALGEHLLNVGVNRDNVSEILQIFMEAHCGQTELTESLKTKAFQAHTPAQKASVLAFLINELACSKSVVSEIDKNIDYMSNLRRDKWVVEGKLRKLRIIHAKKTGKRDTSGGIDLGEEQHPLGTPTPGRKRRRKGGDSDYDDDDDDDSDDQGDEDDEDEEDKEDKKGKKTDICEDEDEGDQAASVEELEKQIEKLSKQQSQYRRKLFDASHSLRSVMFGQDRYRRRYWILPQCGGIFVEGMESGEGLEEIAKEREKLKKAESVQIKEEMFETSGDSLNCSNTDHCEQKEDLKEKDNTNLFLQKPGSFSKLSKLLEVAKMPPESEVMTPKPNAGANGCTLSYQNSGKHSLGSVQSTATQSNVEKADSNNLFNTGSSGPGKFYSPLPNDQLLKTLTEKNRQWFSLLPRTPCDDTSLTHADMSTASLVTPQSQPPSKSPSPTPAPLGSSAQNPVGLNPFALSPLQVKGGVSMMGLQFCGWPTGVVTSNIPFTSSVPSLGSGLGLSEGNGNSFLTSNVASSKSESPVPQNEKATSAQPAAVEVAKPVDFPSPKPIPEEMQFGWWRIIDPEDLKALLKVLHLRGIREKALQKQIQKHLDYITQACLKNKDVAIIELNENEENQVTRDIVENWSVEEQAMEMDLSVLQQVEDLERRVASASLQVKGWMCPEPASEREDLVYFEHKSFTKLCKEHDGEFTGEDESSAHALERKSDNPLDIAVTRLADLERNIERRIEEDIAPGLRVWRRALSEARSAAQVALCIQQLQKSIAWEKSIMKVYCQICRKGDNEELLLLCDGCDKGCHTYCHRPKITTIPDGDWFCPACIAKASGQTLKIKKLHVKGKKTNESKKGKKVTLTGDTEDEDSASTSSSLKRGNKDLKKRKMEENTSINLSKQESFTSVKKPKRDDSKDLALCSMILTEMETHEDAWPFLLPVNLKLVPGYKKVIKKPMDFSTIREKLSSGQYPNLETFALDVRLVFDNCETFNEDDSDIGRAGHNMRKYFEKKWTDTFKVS

Compound | activity change, negative = inhibition | Potency
CCOC(=O)c1c(-c2ccccc2)csc1NC(=O)c1cc(S(=O)(=O)N2CCOCC2)ccc1C | inactive: 1.59% | –
O=C(NCCc1c[nH]c2ccccc12)/C(=C\c1cccs1)NC(=O)c1ccccc1 | – | inconclusive: 70.8 µM [inhibitor, single point]
Cc1nn(CC2CC2)c(=O)n1-c1ccc(Cl)cc1 | – | inconclusive: 3.98 µM [inhibitor, single point]
COc1ccc(N2CCN(C(=O)CN3C(=O)COc4ccc(S(=O)(=O)N5CCC(C)CC5)cc43)CC2)cc1 | – | inconclusive: 39.8 µM [inhibitor, full curve, poor fit]
Cc1c(Cl)cccc1Nc1nc(N)nc(CSC(=S)N2CCOCC2)n1 | – | inconclusive: 79.4 µM [inhibitor, single point]
O=C(c1cnc2c(c1)COc1ccc(Cl)cc1-2)c1ccccc1O | – | inconclusive: 100 µM [inhibitor, single point]
Clc1ccccc1CSc1nnc(C2CCNCC2)o1 | inactive: -17.4% | –
COc1ccc(CNc2cc(C)ccn2)cc1 | – | inconclusive: 89.1 µM [inhibitor, single point]
Cc1ccc(S(=O)(=O)C(C#N)c2nc3ccccc3nc2N2CCCC2)cc1C (stereo unspecified) | – | active: 79.4 µM
O=C(CCCCCn1c(=O)c2sccc2n(CC(=O)Nc2cc(C(F)(F)F)ccc2Cl)c1=O)NCc1ccccc1Cl | inactive: -8.46% | –
CCCCOC(=O)c1ccc(NC(=S)NC(=O)c2ccco2)cc1 | – | inconclusive: 100 µM [inhibitor, partial curve]
Cc1ccc(NC(=O)Cn2cnc3onc(-c4ccc(F)cc4)c3c2=O)c(Cl)c1 | inactive: 11.8% [at 57.1 µM] | –
Cn1c(N)c(C(=O)COC(=O)c2ccccn2)c(=O)n(C)c1=O | – | active: 79.4 µM
COc1cc(C(=O)N/N=C/c2sc(=O)n(-c3ccccc3)c2Cl)cc(OC)c1OC | inactive: -30.8% | –
C=CCOc1ccccc1CNCc1ccc(F)cc1 | inactive: -10.9% | –
CCNC(=O)C1CCCN1C(=O)C(CCCN=C(N)N)NC(=O)C(CC(C)C)NC(=O)C(Cc1cn(Cc2ccccc2)cn1)NC(=O)C(Cc1ccc(O)cc1)NC(=O)C(CO)NC(=O)C(Cc1c[nH]c2ccccc12)NC(=O)C(Cc1cnc[nH]1)NC(=O)C1CCC(=O)N1 (stereo unspecified) | – | inconclusive: 28.2 µM [inhibitor, full curve]
Cc1nonc1C(=O)N1CCCC(Nc2ccc(C(C)C)cc2)C1 (stereo unspecified) | – | inconclusive: 14.1 µM [inhibitor, partial curve]
Cc1cc(C)cc(C(=O)NC(CC(N)=O)c2ccc(N3CCCCCC3)c([N+](=O)[O-])c2)c1 (stereo unspecified) | – | inconclusive: 79.4 µM [inhibitor, single point]
C[N+](C)(C)CCCN1C(=O)CCCC1=O | – | inconclusive: 89.1 µM [inhibitor, single point]
Oc1[nH]c2ccc(Br)cc2c1N=NC(=S)NCC1CCCO1 (stereo unspecified) | – | inconclusive: 20 µM [inhibitor, full curve]
Cc1ccc(C(=O)c2c3ccc(N)cc3nn2CCC(N)=O)cc1 | – | inconclusive: 50.1 µM [inhibitor, partial curve]
COc1ccc(C2(NC(C)=O)CCN(C(=O)CCC(=O)O)CC2)cc1 | – | inconclusive: 14.1 µM [inhibitor, single point]
O=C(CCn1cnc2ccccc21)N/N=C/c1ccc(O)cc1 | inactive: 1.34% | –
Cc1cc(C)cc(NC(=O)c2ccc([N+](=O)[O-])o2)c1 | – | inconclusive: 44.7 µM [inhibitor, partial curve]

Compound | activity change, negative = inhibition | Potency
O=C(NNc1nc2ccc(F)cc2s1)c1cccc(F)c1 | inactive: 7.44% | –
CCOC(=O)CSc1nc(N)c(C(=O)Nc2ccc(N(C)C)cc2)s1 | – | active: 50.1 µM
O=C(Nc1nnc(-c2ccco2)o1)c1ccc([N+](=O)[O-])s1 | – | inconclusive: 89.1 µM [inhibitor, single point]
CCOc1ccccc1CNc1ccc(O)cc1 | – | active: 35.5 µM
O=[N+]([O-])c1ccccc1/C=C/CN1CCN(Cc2ccc3c(c2)OCO3)CC1 | – | inconclusive: 79.4 µM [inhibitor, single point]
O=C(N/N=C/c1ccc(Sc2ccccn2)o1)c1cc2ccccc2cc1O | inactive: -6.65% | –
C/C(=N\N1CCN(C2c3ccccc3-c3ccccc32)CC1)c1ccncc1 | – | inconclusive: 35.5 µM [inhibitor, partial curve]
NCC(c1ccccc1)c1c[nH]c2ccccc12 (stereo unspecified) | – | inconclusive: 79.4 µM [inhibitor, single point]
CCOc1ccc2nc(N(CCN(C)C)C(=O)c3cc4ccccc4cc3OC)sc2c1 | – | inconclusive: 31.6 µM [inhibitor, full curve]
CCOc1ccc(S(=O)(=O)NCCc2c(C)[nH]c3c(Cl)cccc23)cc1C | – | inconclusive: 39.8 µM [inhibitor, partial curve]
O=C(NCCC(=O)N1CCN(S(=O)(=O)c2ccc(Cl)cc2)CC1)Nc1ccccc1 | inactive: 7.65% | –
COc1ccc(NC(=O)Cc2c[nH]c3ccccc23)cc1S(=O)(=O)N1CCCCC1 | – | inconclusive: 35.5 µM [inhibitor, full curve, poor fit]
O=C(COc1ccc([N+](=O)[O-])cc1)Nc1ccc(C(=O)Nc2ccccc2C(=O)O)cc1 | – | inconclusive: 89.1 µM [inhibitor, single point]
Cc1csc2c(N3CCN(C(=O)c4ccc(C(C)(C)C)cc4)CC3)ncnc12 | inactive: -22.8% | –
O=C(c1ccc(F)cc1)N1CCC(c2nc3ccccc3s2)CC1 | inactive: -15% | –
Cc1ccc(S(=O)(=O)N2CCc3c2cc([N+](=O)[O-])cc3[N+](=O)[O-])cc1 | – | inconclusive: 12.6 µM [inhibitor, full curve]
Cc1ccc(C(=O)Nc2ccon2)cc1S(=O)(=O)N1CCOCC1 | – | inconclusive: 89.1 µM [inhibitor, single point]
CS(=O)(=O)N1CCC(C(=O)Nc2ccc3c(c2)OCCO3)CC1 | – | inconclusive: 3.55 µM [inhibitor, full curve, poor fit]
COc1ccc(C(=O)Nc2ccc3nc(SCC(=O)N(C)c4ccccc4)sc3c2)cc1 | inactive: 2.1% | –
COC(=O)Cn1c(=NC(=O)CCS(=O)(=O)c2ccccc2)sc2c(OC)ccc(OC)c21 | inactive: -3.69% | –
O=c1c2ccccc2ncn1CCCOc1ccccc1[N+](=O)[O-] | inactive: 4.44% | –
C=CCNC(=S)N/N=C(\C)c1cccc(OC)c1 | inactive: -33.7% | –
O=C(Nc1ccc(Cl)c(Cl)c1)Nc1ccccc1NS(=O)(=O)c1cccs1 | – | inconclusive: 89.1 µM [inhibitor, single point]
CCOc1ccc(C2/C(=C(/O)c3ccc4c(c3)CC(C)O4)C(=O)C(=O)N2CC2CCCO2)cc1 (stereo unspecified) | – | inconclusive: 79.4 µM [inhibitor, single point]

Compound | activity change, negative = inhibition | Potency
CC(=O)Nc1cccc(NC(=O)Cc2cccs2)c1 | – | inconclusive: 89.1 µM [inhibitor, single point]
COc1ccc2cc(CN(CCCN3CCOCC3)Cc3nnnn3C3CCCC3)c(=O)[nH]c2c1 | – | inconclusive: 79.4 µM [inhibitor, single point]
CSc1cccc(NC(=S)N(CCCN2CCCC2)Cc2cccs2)c1 | – | inconclusive: 31.6 µM [inhibitor, full curve]
CCCc1oc(C(=O)O)cc1CN | – | inconclusive: 31.6 µM [inhibitor, single point]
OCCC#Cc1ccc(CN2CCN(Cc3ccsc3)C(CCO)C2)cc1 (stereo unspecified) | – | inconclusive: 50.1 µM [inhibitor, partial curve]
COc1ccc(CCNC(=O)CCNC(=O)c2ccc(Br)cc2)cc1OC | inactive: 9.03% | –
CN1C(=O)/C(=C/c2ccccc2Cl)Sc2ccc(C(=O)NCc3cccnc3)cc21 | – | inconclusive: 25.1 µM [inhibitor, full curve]
COc1cccc(C(=O)NCCS(=O)(=O)N(C)Cc2ccccc2)c1 | inactive: 2.38% | –
COc1ccc2sc(-c3ccc(N(C)C)cc3)c(C#CCCO)c2c1 | – | inconclusive: 56.2 µM [inhibitor, partial curve]
COc1ccccc1/C=C/C=N/NC(=O)c1cc(-c2ccco2)[nH]n1 | – | inconclusive: 35.5 µM [inhibitor, partial curve]
O=C(O)CNC(=O)CCCn1nnc2ccccc2c1=O | inactive: 5.84% | –
COc1cc2c(cc1OC)C(C)N(C(=O)c1cc3n(n1)C(C(F)(F)F)CC(c1ccco1)N3)CC2 (stereo unspecified) | – | inconclusive: 50.1 µM [inhibitor, partial curve]
CCCCc1nnc(NC(=O)c2oc3ccccc3c2C)s1 | inactive: -3.57% | –
OC(COc1ccccc1)CN1CCCC1 (stereo unspecified) | – | active: 79.4 µM
CSc1ccccc1OCc1cc(C(=O)NC(C)Cn2cncn2)no1 (stereo unspecified) | inactive: 0.501% | –
Cc1cccc2c1-c1sc(C(=O)N(C)c3cccc(Cl)c3)cc1CO2 | inactive: 50.1% | –
CCNC(=O)/C(C#N)=C/c1c(N2CCN(c3ccccc3)CC2)nc2ccccn2c1=O | – | inconclusive: 70.8 µM [inhibitor, single point]
O=C(c1ccc2c(c1)N(Cc1cccc(F)c1)C(=O)c1ccccc1S2)N1CCCC1 | – | inconclusive: 50.1 µM [inhibitor, partial curve]
CCOC(=O)c1c(C)[nH]c(C)c1C(=O)COC(=O)c1cc(OC)cc(OC)c1 | – | inconclusive: 50.1 µM [inhibitor, partial curve]
CC(=O)NC1=NN(C(C)=O)C2(S1)C(=O)N(C(C)=O)c1ccc(C)cc12 (stereo unspecified) | inactive: -6.91% | –
Oc1ccc(C2C(c3ccccc3)=NN=C(c3ccc(Cl)cc3)N2O)c(O)c1 (stereo unspecified) | inactive: -31.8% | –
COc1ccccc1N1CCN(C(=O)c2c(C)oc3ncn(C)c(=O)c23)CC1 | inactive: 10.3% [at 57.1 µM] | –
Cc1cc2c(n1-c1ccc(C(=O)NCc3ccccc3Cl)cc1)CCCC2 | inactive: -16.7% | –
